Test results from paper PMC9911399, “Two distinct binding modes provide the RNA-binding protein RbFox with extraordinary sequence specificity”.
Changes are numbered by the printed parent chain; changes in the protein carry UniProt numbers. This is one part of the list.

T1: RBFOX1 RRM (Homo sapiens, UniProt Q9NWB1 109-208)
T1 sequence: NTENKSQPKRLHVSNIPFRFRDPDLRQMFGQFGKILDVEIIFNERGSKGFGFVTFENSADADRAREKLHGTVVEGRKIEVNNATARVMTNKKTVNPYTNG

B1: UUCCUAC (DNA:RNA)
RNA: GGGAGACCGGAAUUCAGAUUGUCCUUCCUACUUAAAUCCCGUCGUAGCCACCA
DNA 1: CAATCTGAATTCCGGTCTCCC
DNA 2: TGGTGGCTACGACGGGATT
B2: CCUCGCA (DNA:RNA)
RNA: B1 RNA with U25C, U26C, C27U, U29G, A30C, C31A
DNA 1: CAATCTGAATTCCGGTCTCCC
DNA 2: TGGTGGCTACGACGGGATT
B3: GUAGCGG (DNA:RNA)
RNA: B1 RNA with U25G, C27A, C28G, U29C, A30G, C31G
DNA 1: CAATCTGAATTCCGGTCTCCC
DNA 2: TGGTGGCTACGACGGGATT
B4: AGCAUGU (DNA:RNA)
RNA: B1 RNA with U25A, U26G, C28A, A30G, C31U
DNA 1: CAATCTGAATTCCGGTCTCCC
DNA 2: TGGTGGCTACGACGGGATT
B5: UUCAAAA (DNA:RNA)
RNA: B1 RNA with C28A, U29A, C31A
DNA 1: CAATCTGAATTCCGGTCTCCC
DNA 2: TGGTGGCTACGACGGGATT
B6: CGAUAUA (DNA:RNA)
RNA: GGGAGACCGGAAUUCAGAUUGUCCCGAUAUAUUAAAUCCCGUCGUAGCCACCA
DNA 1: CAATCTGAATTCCGGTCTCCC
DNA 2: TGGTGGCTACGACGGGATT
B7: UUGUUUU (DNA:RNA)
RNA: B1 RNA with C27G, C28U, A30U, C31U
DNA 1: CAATCTGAATTCCGGTCTCCC
DNA 2: TGGTGGCTACGACGGGATT
B8: ACCUGGA (DNA:RNA)
RNA: B6 RNA with C25A, G26C, A27C, A29G, U30G
DNA 1: CAATCTGAATTCCGGTCTCCC
DNA 2: TGGTGGCTACGACGGGATT
B9: UGCCGGC (DNA:RNA)
RNA: B1 RNA with U26G, U29G, A30G
DNA 1: CAATCTGAATTCCGGTCTCCC
DNA 2: TGGTGGCTACGACGGGATT
B10: ACACGUG (DNA:RNA)
RNA: B6 RNA with C25A, G26C, U28C, A29G, A31G
DNA 1: CAATCTGAATTCCGGTCTCCC
DNA 2: TGGTGGCTACGACGGGATT
B11: UAGAAAG (DNA:RNA)
RNA: B1 RNA with U26A, C27G, C28A, U29A, C31G
DNA 1: CAATCTGAATTCCGGTCTCCC
DNA 2: TGGTGGCTACGACGGGATT
B12: CGGGAGU (DNA:RNA)
RNA: B6 RNA with A27G, U28G, U30G, A31U
DNA 1: CAATCTGAATTCCGGTCTCCC
DNA 2: TGGTGGCTACGACGGGATT
B13: UCGACUG (DNA:RNA)
RNA: B6 RNA with C25U, G26C, A27G, U28A, A29C, A31G
DNA 1: CAATCTGAATTCCGGTCTCCC
DNA 2: TGGTGGCTACGACGGGATT
B14: CUUCAUG (DNA:RNA)
RNA: B6 RNA with G26U, A27U, U28C, A31G
DNA 1: CAATCTGAATTCCGGTCTCCC
DNA 2: TGGTGGCTACGACGGGATT
B15: AUCGGCC (DNA:RNA)
RNA: B1 RNA with U25A, C28G, U29G, A30C
DNA 1: CAATCTGAATTCCGGTCTCCC
DNA 2: TGGTGGCTACGACGGGATT
B16: GUGACCC (DNA:RNA)
RNA: B1 RNA with U25G, C27G, C28A, U29C, A30C
DNA 1: CAATCTGAATTCCGGTCTCCC
DNA 2: TGGTGGCTACGACGGGATT
B17: CAGCCCU (DNA:RNA)
RNA: B6 RNA with G26A, A27G, U28C, A29C, U30C, A31U
DNA 1: CAATCTGAATTCCGGTCTCCC
DNA 2: TGGTGGCTACGACGGGATT
B18: UGAGUAA (DNA:RNA)
RNA: B6 RNA with C25U, U28G, A29U, U30A
DNA 1: CAATCTGAATTCCGGTCTCCC
DNA 2: TGGTGGCTACGACGGGATT
B19: GGAGUCC (DNA:RNA)
RNA: B6 RNA with C25G, U28G, A29U, U30C, A31C
DNA 1: CAATCTGAATTCCGGTCTCCC
DNA 2: TGGTGGCTACGACGGGATT
B20: CGACCCU (DNA:RNA)
RNA: B6 RNA with U28C, A29C, U30C, A31U
DNA 1: CAATCTGAATTCCGGTCTCCC
DNA 2: TGGTGGCTACGACGGGATT
B21: GAAAUGU (DNA:RNA)
RNA: B6 RNA with C25G, G26A, U28A, A29U, U30G, A31U
DNA 1: CAATCTGAATTCCGGTCTCCC
DNA 2: TGGTGGCTACGACGGGATT
B22: UGGCAAG (DNA:RNA)
RNA: B1 RNA with U26G, C27G, U29A, C31G
DNA 1: CAATCTGAATTCCGGTCTCCC
DNA 2: TGGTGGCTACGACGGGATT
B23: AGGGUUC (DNA:RNA)
RNA: B6 RNA with C25A, A27G, U28G, A29U, A31C
DNA 1: CAATCTGAATTCCGGTCTCCC
DNA 2: TGGTGGCTACGACGGGATT
B24: CCGCAGC (DNA:RNA)
RNA: B6 RNA with G26C, A27G, U28C, U30G, A31C
DNA 1: CAATCTGAATTCCGGTCTCCC
DNA 2: TGGTGGCTACGACGGGATT
B25: AAUAUGG (DNA:RNA)
RNA: B1 RNA with U25A, U26A, C27U, C28A, A30G, C31G
DNA 1: CAATCTGAATTCCGGTCTCCC
DNA 2: TGGTGGCTACGACGGGATT
B26: GAGCGAA (DNA:RNA)
RNA: B1 RNA with U25G, U26A, C27G, U29G, C31A
DNA 1: CAATCTGAATTCCGGTCTCCC
DNA 2: TGGTGGCTACGACGGGATT
B27: GAUUUCA (DNA:RNA)
RNA: B6 RNA with C25G, G26A, A27U, A29U, U30C
DNA 1: CAATCTGAATTCCGGTCTCCC
DNA 2: TGGTGGCTACGACGGGATT
B28: GCACCUA (DNA:RNA)
RNA: B6 RNA with C25G, G26C, U28C, A29C
DNA 1: CAATCTGAATTCCGGTCTCCC
DNA 2: TGGTGGCTACGACGGGATT
B29: AUCUAAG (DNA:RNA)
RNA: B1 RNA with U25A, C28U, U29A, C31G
DNA 1: CAATCTGAATTCCGGTCTCCC
DNA 2: TGGTGGCTACGACGGGATT
B30: ACGUACC (DNA:RNA)
RNA: B6 RNA with C25A, G26C, A27G, U30C, A31C
DNA 1: CAATCTGAATTCCGGTCTCCC
DNA 2: TGGTGGCTACGACGGGATT
B31: GCCGAGA (DNA:RNA)
RNA: B6 RNA with C25G, G26C, A27C, U28G, U30G
DNA 1: CAATCTGAATTCCGGTCTCCC
DNA 2: TGGTGGCTACGACGGGATT

Target: T1, RBFOX1 RRM
Test: EMSA; HiTS-Eq, 1 nM pool, 10 min; buffer printed only for the single-RNA assays: 10 mM Tris pH 7.5, 150 mM NaCl, 3.4 mM EDTA, 0.001% NP-40, 30 C
Conditions: tags: His6 N-terminal (pET28a); label: 5' 32P
How it was run: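 Purified wild-type or mutant RbFox RRM at increasing concentrations was equilibrated with 1 nM of 5′-radiolabelled RNA carrying 7 randomized nucleotides for 10 min in 50 µL. Unbound RNA was separated by 8% native PAGE and sequenced. Relative association constants came from read-count changes of each RNA species compared with the control reaction, normalised to the cognate motif.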

Binder	binding signal
B1	0.00566 KA relative to UGCAUGU
B2	0.0153 KA relative to UGCAUGU
B3	0.0122 KA relative to UGCAUGU
B4	0.738 KA relative to UGCAUGU
B5	0.003 KA relative to UGCAUGU
B6	0.000551 KA relative to UGCAUGU
B7	0.0227 KA relative to UGCAUGU
B8	0.00688 KA relative to UGCAUGU
B9	0.0185 KA relative to UGCAUGU
B10	0.00337 KA relative to UGCAUGU
B11	0.0158 KA relative to UGCAUGU
B12	0.0213 KA relative to UGCAUGU
B13	0.0216 KA relative to UGCAUGU
B14	0.0106 KA relative to UGCAUGU
B15	0.0117 KA relative to UGCAUGU
B16	0.00703 KA relative to UGCAUGU

Binder	binding signal
B17	0.000496 KA relative to UGCAUGU
B18	0.0193 KA relative to UGCAUGU
B19	0.0187 KA relative to UGCAUGU
B20	0.00228 KA relative to UGCAUGU
B21	0.0132 KA relative to UGCAUGU
B22	0.0199 KA relative to UGCAUGU
B23	0.0208 KA relative to UGCAUGU
B24	0.00553 KA relative to UGCAUGU
B25	0.00711 KA relative to UGCAUGU
B26	0.0114 KA relative to UGCAUGU
B27	0.0102 KA relative to UGCAUGU
B28	0.0076 KA relative to UGCAUGU
B29	0.00346 KA relative to UGCAUGU
B30	0.00409 KA relative to UGCAUGU
B31	0.0191 KA relative to UGCAUGU
